The supplement of paper PMC10369915
The list shows a part of the results. No stated cut-off is given here; in the data, active = 3.2 or more and inactive = the rest. The signal is at background level for most entries.

How the values were obtained:
Assay in all cases: enrichment score (SH2-bound / input frequency) (ratio); bacterial display of known human phosphotyrosine sites (pTyr-Var adds point mutants) read by sequencing; higher = stronger binding; tyrosines were phosphorylated by kinases first
Conditions in all cases: peptide library: Human pTyr
[1] = target: SHP2 C-SH2 domain E139D
[2] = target: SHP2 C-SH2 domain wild-type
[3] = target: SHP2 N-SH2 domain L43F
[4] = target: SHP2 N-SH2 domain T42A
[5] = target: SHP2 N-SH2 domain T52S
[6] = target: SHP2 N-SH2 domain wild-type

Measured: enrichment score
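Further: displayed peptides selected on beads carrying the immobilized SH2 domain, with library peptides lacking any tyrosine serving as negative controls.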

NNTTNRYYKEIPLSE [KPCD2_HUMAN_438]
inactive: [1] 1.03 | [2] 0.943 | [3] 0.807 | [4] 0.785 | [5] 0.929 | [6] 0.895

TEVYESPYADPEEIR [KSYK_HUMAN_352]
inactive: [1] 1.06 | [2] 0.83 | [3] 0.784 | [4] 1.08 | [5] 1.07 | [6] 0.945

IRVDTPHYPRWITKE [KPCD_HUMAN_567]
inactive: [1] 1.46 | [2] 1.34 | [3] 1.3 | [4] 1.45 | [5] 1.55 | [6] 1.51

TITKTVEYLHAQGVV [KS6A3_HUMAN_529]
inactive: [1] 1.13 | [2] 0.995 | [3] 1.05 | [4] 1.05 | [5] 0.901 | [6] 1.2

ALRADENYYKAQTHG [KSYK_HUMAN_525]
inactive: [1] 0.88 | [2] 0.711 | [3] 0.656 | [4] 0.639 | [5] 0.646 | [6] 0.907

YYRQQAAYYGQTPGP [KHSRP_HUMAN_688]
inactive: [1] 0.586 | [2] 0.431 | [3] 0.695 | [4] 0.411 | [5] 0.598 | [6] 0.623

FAGSPLSYRPVAIAL [KPYR_HUMAN_148]
inactive: [1] 0.851 | [2] 0.843 | [3] 0.786 | [4] 1.02 | [5] 1 | [6] 0.929

VMILTAKYLQKPMAE [KIT_HUMAN_547_YA]
inactive: [1] 1.07 | [2] 0.888 | [3] 0.917 | [4] 0.796 | [5] 1.11 | [6] 1.05

DHAEAALYKNLLHSK [KIT_HUMAN_703]
inactive: [1] 1.07 | [2] 0.854 | [3] 0.687 | [4] 0.95 | [5] 1.04 | [6] 1.06

INGNNYVYIDPTQLP [KIT_HUMAN_570]
inactive: [1] 0.843 | [2] 1.92 | [3] 1 | [4] 0.784 | [5] 0.344 | [6] 0.542

MQDNSGTYGKIWEGS [KPCD_HUMAN_334]
inactive: [1] 0.584 | [2] 0.636 | [3] 0.681 | [4] 0.735 | [5] 0.805 | [6] 0.666

DGTSFGEYGGWAKAC [KLC1_HUMAN_449_YA]
inactive: [1] 0.733 | [2] 0.685 | [3] 0.653 | [4] 0.711 | [5] 0.7 | [6] 0.815

APTDNEDYEHDDEDD [3BP2_HUMAN_174_YA]
inactive: [1] 0.913 | [2] 0.889 | [3] 0.985 | [4] 0.951 | [5] 0.752 | [6] 1.31

INGNNAVYIDPTQLP [KIT_HUMAN_570_YA]
inactive: [1] 0.8 | [2] 0.569 | [3] 0.774 | [4] 0.601 | [5] 1.01 | [6] 0.796

NDTGSRAYKEIPLSE [KPCD1_HUMAN_463_YA]
inactive: [1] 0.812 | [2] 0.623 | [3] 0.803 | [4] 0.817 | [5] 0.799 | [6] 0.904

KALQKPMYEVQWKVV [KIT_HUMAN_553_YA]
inactive: [1] 1.61 | [2] 1.35 | [3] 1.29 | [4] 1.33 | [5] 1.64 | [6] 1.62

CSDSTNEYMDMKPGV [KIT_HUMAN_721]
inactive: [1] 1.38 | [2] 0.927 | [3] 1.09 | [4] 1.21 | [5] 1.24 | [6] 1.01

NEFAGFSYTNPEFVI [KPCB_HUMAN_662]
inactive: [1] 0.996 | [2] 0.884 | [3] 1.32 | [4] 1.62 | [5] 1.06 | [6] 0.933

SESTNHIYSNLANCS [KIT_HUMAN_936]
inactive: [1] 1.02 | [2] 0.915 | [3] 0.695 | [4] 0.846 | [5] 1.38 | [6] 1.14

EHAPAEMYDIMKTCW [KIT_HUMAN_900]
inactive: [1] 1.2 | [2] 1.21 | [3] 1.22 | [4] 1.22 | [5] 1.11 | [6] 1.53

SVVGTPAYLAPEVLL [KPCD2_HUMAN_717]
inactive: [1] 0.56 | [2] 0.658 | [3] 0.546 | [4] 0.539 | [5] 0.629 | [6] 0.67

KDPTNGYYNVRAHED [KIRR1_HUMAN_606]
inactive: [1] 1.2 | [2] 1.03 | [3] 1.04 | [4] 1.09 | [5] 1.09 | [6] 1.27

DGTSFGEYGGWYKAC [KLC1_HUMAN_449]
inactive: [1] 1.11 | [2] 0.881 | [3] 0.845 | [4] 0.949 | [5] 1.05 | [6] 1.11

GAYREHPYGRYGGGG [KHDR1_HUMAN_440]
inactive: [1] 2.12 | [2] 2.16 | [3] 1.88 | [4] 2.02 | [5] 2.29 | [6] 2.51

KFPECGFYGMADKIL [KPCD1_HUMAN_95_YA]
inactive: [1] 1.39 | [2] 1.06 | [3] 1.41 | [4] 1.26 | [5] 1.32 | [6] 1.42

VELRLRNYYYDVVNG [KSYK_HUMAN_629]
inactive: [1] 1.67 | [2] 1.58 | [3] 1.35 | [4] 1.61 | [5] 1.41 | [6] 1.96

TTANVVYYVGENVVN [KPCD1_HUMAN_502]
inactive: [1] 0.851 | [2] 1.35 | [3] 0.54 | [4] 0.633 | [5] 0.662 | [6] 0.822

ALRADENYAKAQTHG [KSYK_HUMAN_525_YA]
inactive: [1] 0.893 | [2] 0.674 | [3] 0.763 | [4] 0.717 | [5] 0.754 | [6] 0.747

STVSFNPYEPELAPW [KSYK_HUMAN_323]
inactive: [1] 0.594 | [2] 0.434 | [3] 0.505 | [4] 0.512 | [5] 0.54 | [6] 0.648

EEINGNNYVYIDPTQ [KIT_HUMAN_568]
inactive: [1] 0.922 | [2] 0.886 | [3] 0.762 | [4] 0.772 | [5] 0.693 | [6] 0.773

VSGEKNIYAFMGTPV [KI67_HUMAN_1552]
inactive: [1] 0.894 | [2] 1.03 | [3] 0.65 | [4] 0.827 | [5] 0.721 | [6] 0.748

SELRSAPYEFPEESP [AMPD2_HUMAN_145]
inactive: [1] 0.551 | [2] 0.63 | [3] 0.488 | [4] 0.703 | [5] 0.721 | [6] 0.661

ELRLRNAYADVVNGG [KSYK_HUMAN_630_YA]
inactive: [1] 1.35 | [2] 3.04 | [3] 0.885 | [4] 1.03 | [5] 0.91 | [6] 0.953

KFPECGFYGMYDKIL [KPCD1_HUMAN_95]
inactive: [1] 1.53 | [2] 1.55 | [3] 1.74 | [4] 1.38 | [5] 1.48 | [6] 1.8

TTANVVAYVGENVVN [KPCD1_HUMAN_502_YA]
inactive: [1] 0.497 | [2] 0.525 | [3] 0.538 | [4] 0.503 | [5] 0.522 | [6] 0.553

KEGWMVHYTSKDTLR [KPCD1_HUMAN_432]
inactive: [1] 1.13 | [2] 1.15 | [3] 1.12 | [4] 0.969 | [5] 1.25 | [6] 1.57
